Laboratory results as given in PubChem BioAssay AID504466 (National Center for Advancing Translational Sciences (NCATS), 2011).
Hit rate of the full screen: of about 330,000 compounds, about 4,200 (1.3%) were called active. Inconclusive results, whose numbers are uncertain, are shown with a selection of clear calls. The call rests on the fitted dose curve; in most records, active means well fitted activation curve with a large enough effect; inconclusive means small, poorly fitted or top-dose-only effect; inactive means no such curve, though single readings can be large or run the other way. Where the call is inconclusive, the potency comes from a doubtful curve fit.

test: qHTS screen for small molecules that induce genotoxicity in human embryonic kidney (HEK293T) cells expressing luciferase-tagged ELG1; conditions: HEK293T ELG1-luciferase reporter, luminescence, 16 h; series mostly up to 46 µM; further: nearly all actives have a fitted effect of over 60% in size
Outline: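 HEK293T cells expressing luciferase-tagged ELG1 were exposed to compound or DMSO vehicle for 16 hr at 37 °C and 5% CO2. Luciferase activity was then measured with ONE-Glo after 30 min at room temperature.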
Potency means the concentration at half of the fitted maximal effect; tags describe the fitted curve by direction and shape.

Compound | Potency
CCn1cc(C(=O)NCCc2ccccc2)c(=O)c2cc(S(=O)(=O)N(C)C)ccc21 | inactive
Cc1ccccc1NC(=O)CSc1n[nH]c(-c2ccccn2)n1 | inactive
Cc1ccc(-c2nc3cnccn3c2Nc2ccc3c(c2)OCCO3)o1 | inconclusive: 35.5 µM [activator, single point]
CCOC(=O)c1sc2nc3c(SCCC(=O)O)cc(C(=O)c4cc(OC)ccc4O)cn3c(=O)c2c1C | inactive
COc1ccc(/C=C/C(=O)NC(=S)Nc2ccccn2)cc1 | inconclusive: 9.2 µM [activator, partial curve, poor fit]
COc1cccc(-c2nnn(CC(C)=O)n2)c1 | inconclusive: 18.4 µM [activator, partial curve]
Cc1oc(-c2ccc(Cl)cc2)nc1CN1CCC(C(=O)NCCCN2CCCC(C)C2)CC1 (centres undefined) | inactive
N#Cc1ccc(-c2cccs2)nc1SCc1cccnc1 | inconclusive: 16.4 µM [activator, single point]
CCOC(=O)Nc1nnc(-c2cccc(OC)c2)s1 | inconclusive: 20.6 µM [activator, single point]
O=C1CS/C(=C/C(=O)c2cccc(Cl)c2)N1 | inactive
CCN1CCN(C(=O)c2[nH]c3ccc(OC)cc3c2C)CC1 | inactive
O=C(c1ccco1)N1CCN(C(=O)c2cnn3c(C(F)(F)F)cc(-c4cccs4)nc23)CC1 | inactive
CCCCOC(=O)Nc1ccc(N2CCCCC2)cc1 | inconclusive: 2.31 µM [activator, full curve]
CCCCNC(=O)C1CCN(Cc2ccc(OCc3ccccc3)cc2)CC1 | inconclusive: 16.4 µM [activator, partial curve, poor fit]
COc1cc(/C=C/C(=O)Nc2cc(S(=O)(=O)N3CCOCC3)ccc2N2CCCC2)cc(OC)c1OC | inconclusive: 20.6 µM [activator, single point]
COc1ccc(-c2nnc(SCC(=O)N3CCCC3)o2)c(OC)c1 | inconclusive: 14.6 µM [activator, partial curve]
O=C(c1cc2ccccc2oc1=O)N(Cc1ccc(F)cc1)C1CCS(=O)(=O)C1 (centres undefined) | inconclusive: 18.3 µM [activator, partial curve]
CCOC(=O)c1c(NC2=NS(=O)(=O)c3ccccc32)sc2c1CCCCC2 | inactive
CCCc1cc(=O)n2[nH]c(-c3ccc(C)cc3)cc2n1 | inconclusive: 10.3 µM [activator, partial curve]
O=C(CCCN1C(=O)c2ccccc2C1=O)Nc1nnc(C2CC2)s1 | inactive
Cc1nc(N/N=C\c2ccc3c(c2)OCO3)sc1C | inconclusive: 14.6 µM [activator, partial curve]
Cn1cc([N+](=O)[O-])c(C(=O)NC2CCCCCCC2)n1 | inactive
CCC(=O)Nc1ccc2c(c1)C(=O)N(C)C2=O | inactive
O=C(NCCNc1ccccc1[N+](=O)[O-])c1cc(F)c(F)cc1Cl | inconclusive: 18.3 µM [activator, partial curve, poor fit]
Cn1c(CCNC(=O)c2ccc(F)cc2)nc2ccccc21 | inactive

Compound | Potency
COC(=O)c1ccc(N/C=C/C(=O)c2ccc(OC)c(OC)c2)cc1 | inconclusive: 23.1 µM [activator, partial curve, poor fit]
CC(C)COc1ccc(C(=O)Nc2ccccc2[N+](=O)[O-])cc1 | inconclusive: 18.4 µM [activator, partial curve]
Cc1ccc(-c2nc(COC(=O)c3c(C)noc3C)cs2)cc1 | inconclusive: 18.4 µM [activator, partial curve, poor fit]
CCC(C(=O)Nc1ccc2c(c1)OCCO2)n1nnc2ccccc2c1=O (centres undefined) | inconclusive: 10.3 µM [activator, partial curve]
COc1ccc(C(=O)N2CCc3ccccc32)cc1 | inconclusive: 20.6 µM [activator, partial curve, poor fit]
Cc1ccc(-c2cc(-c3ccccc3Cl)[nH]n2)c(O)c1 | inconclusive: 8.2 µM [activator, partial curve]
CC(=O)c1coc2c1cc(O)c1ccccc12 | inconclusive: 20.6 µM [activator, single point]
O=C(NC(=S)Nc1cc([N+](=O)[O-])ccc1Cl)c1ccccc1 | inconclusive: 8.2 µM [activator, partial curve, poor fit]
CCN(CC)c1ccc(NC(=O)c2ccc(Br)o2)cc1 | inconclusive: 8.2 µM [activator, partial curve]
CC(C)C(=O)Nc1ccc(NC(=S)NC(=O)c2ccccc2F)cc1 | inactive
COc1cccc(-c2nc3cc(C)ccc3o2)c1 | active: 1.3 µM
CCN(CC)c1ccc(/C=N/OC(C)C(=O)Nc2ccc(C)cc2)cc1 (centres undefined) | inactive
COc1ccc(C(=O)Nc2ccc(C)cn2)c(OC)c1 | active: 0.092 µM
Cc1cccc(C(=O)OCC(=O)NC(=O)NCc2ccccc2)c1 | inactive
O=C(CNC(=O)c1ccc([N+](=O)[O-])cc1)c1ccccc1 | inconclusive: 9.2 µM [activator, partial curve, poor fit]
COC(=O)Nc1ccc(S(=O)(=O)NC2CCCCC2)cc1 | inactive
O=C1C(Cl)=C(Nc2ccccc2O)C(=O)N1c1ccccc1 | inconclusive: 10.3 µM [activator, partial curve]
O=C(O)c1ccc(Nc2cnc3ccccc3n2)cc1 | inconclusive: 20.6 µM [activator, single point]
COc1ccccc1/C=N\Nc1ccccc1[N+](=O)[O-] | active: 9.2 µM
CN(C)/C=N/c1nc2ccc3c(c2s1)CCCC3 | inconclusive: 3.66 µM [activator, full curve]
O=C(CSc1nnc(-c2ccccc2O)o1)N1CCCCC1 | inconclusive: 16.4 µM [activator, single point]
CN(C)CCNc1ncnc2ccccc12 | inconclusive: 23.1 µM [activator, partial curve, poor fit]
Clc1ccc(C2=Nn3c(nnc3-c3cccs3)SC2)cc1 | inconclusive: 25.9 µM [activator, partial curve, poor fit]
COc1ccc(C(=O)NCCn2ccc3ccccc32)c(OC)c1 | inconclusive: 10.3 µM [activator, single point]
O=C(CC1CCCCC1)NCc1ccccc1Cl | inconclusive: 16.4 µM [activator, partial curve]

Compound | Potency
C/C(=N/N=C(/C)c1cccs1)c1cccs1 | inconclusive: 18.3 µM [activator, partial curve]
O=C1C(=O)N(C/C=C/c2ccccc2)c2ccccc21 | inconclusive: 18.3 µM [activator, partial curve, poor fit]
CC(C)CC(=O)Nc1ccc2oc(-c3cccnc3)nc2c1 | inconclusive: 14.6 µM [activator, partial curve]
COCC(C)n1c(C)cc(C(=O)CSc2ncccn2)c1C (centres undefined) | inconclusive: 9.2 µM [activator, partial curve]
CN(C)c1cccc(C(=O)OCC(=O)c2ccc[nH]2)c1 | inconclusive: 4.61 µM [activator, full curve]
Cc1ccc(/C=C/C(=O)NCc2cccs2)cc1 | inconclusive: 25.9 µM [activator, single point]
O=C(O)c1ccc(-c2ccccn2)s1 | inconclusive: 18.3 µM [activator, partial curve, poor fit]
Oc1ccc(N=Nc2ccc(Br)cc2)c(O)c1 | inconclusive: 18.3 µM [activator, partial curve]
COc1ccc(OCc2cc(C(=O)NC(C)Cc3cnccn3)no2)c(Cl)c1 (centres undefined) | inconclusive: 18.3 µM [activator, partial curve, poor fit]
N/C(=N\OC(=O)c1ccccc1Cl)c1cccnc1 | inconclusive: 18.4 µM [activator, partial curve]
COc1ccccc1N(CCOc1ccccc1)S(=O)(=O)c1ccccc1 | inactive
O=C(Nc1ccc(Cl)c(Cl)c1)C1=Cc2ccccc2OC1 | inconclusive: 5.17 µM [activator, partial curve]
CCOC(=O)C1CCCN(C(=O)c2cc3c(-c4cccc(OC)c4)nn(C)c3s2)C1 (centres undefined) | inactive
Cc1nn(-c2ccccc2)c(C)c1C(=O)OCC(=O)N(C)C1CCS(=O)(=O)C1 (centres undefined) | inconclusive: 23.1 µM [activator, partial curve, poor fit]
COc1ccc(NC(=O)CSc2nc3ccccc3c(=O)n2CCCC(=O)NCC2CCCO2)c(OC)c1 (centres undefined) | inactive
O=C(CSc1nc(=O)n(CCCN2CCOCC2)c2c1CCCC2)Nc1cccc(Cl)c1 | inactive
COc1ccc2nc3sc(C(=O)NCc4cccs4)c(N)c3cc2c1 | inconclusive: 5.8 µM [activator, partial curve]
CCN(CC)c1ccc(/C=N/Nc2nc3ccccc3[nH]2)cc1 | inconclusive: 6.51 µM [activator, single point]
CCC1CCc2c(sc(NC(=O)c3ccoc3C)c2C(N)=O)C1 (centres undefined) | inconclusive: 20.6 µM [activator, partial curve, poor fit]
Cc1csc2nc(CSc3ccc(Cl)cc3)cn12 | inconclusive: 4.61 µM [activator, partial curve]
CCC(O)C1CCN(C(=O)c2cc(COc3ccc(F)cc3F)on2)CC1 (centres undefined) | inactive
Cc1cc(C(=O)NCc2cccnc2)n(-c2ccccc2)n1 | inactive
Cc1nn(-c2ccccc2)c(C)c1/C=C1\C(=O)N(C)C(=S)N1C | inactive
Cc1cc(C(=O)Nc2ccccn2)no1 | inconclusive: 14.1 µM [activator, partial curve, poor fit]
